Measurements taken from the supplement of paper PMC11417369.
Some of the results follow.

Tested on: PfSIP2 AP2 domain 1 (GST-tagged)
Test: gcPBM binding intensity (ln(normalized median fluorescence intensity)); higher = stronger DNA binding
Outline: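 The highest Masliner-normalised natural-log median intensity across replicate spots of either probe orientation is reported as binding intensity. GST-tagged P. falciparum DNA-binding domains expressed in E. coli were applied for 1 h to an Agilent 4 × 180k array of primer-extended double-stranded 36-bp intergenic genomic probes plus negative controls, and bound protein was detected with Alexa488 anti-GST antibody and scanned at 488 nm.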

| Sequence | gcPBM binding intensity (ln) |
| --- | --- |
| TATTTTTATATATATACACACTTACAGATATATATT [CACACA_site5905] | 7.14 |
| AAAGGGGAGATATGAACACACAAAAAAAAAATATAT [CACACA_site7378] | 7.06 |
| TATATATATTTTAAATGTACTTATAAATTACCACTT [XGTACX_site5673] | 7.26 |
| AGAAAGGATATAAGCGTAGCTATATCATAAAAAATG [GTGCAC_negctrl_site332] | 6.68 |
| AAATAAAATTTTTGTTGTACTTATTTTTAGTATACT [XGTACX_site4254] | 7.23 |
| AATATTTACAGACATGCGCACACATAAATAAATAAT [CACACA_site8760] | 8.81 |
| TAAATAAATTTGCACTGTACGCAAAAAAAAAAAAGA [XGTACX_site8781] | 8.67 |
| GTATATATATATTTATGTACTTACCTACATAATTAT [XGTACX_site4435] | 7.14 |
| CCTTTTAAGAGTTGCACACGTACAAAAAAAAAAAAA [CACACA_site3492] | 8.01 |
| AATAATAAAAAATACGCACACATGTAAACGTATGTT [CACACA_site3336] | 7.08 |
| GGCGATATAGAACTACGTACTTATACAAATTATAAT [XGTACX_site2307] | 7.23 |
| ACACATAAATGTATATATATATAAATATATGTATGT [CACACA_negctrl_site1532] | 7.08 |
| TATATATATATATATAAGCTTATAATAAAACAAAAA [XGTACX_negctrl_site568] | 9.45 |
| ATAGCAATAATGGAAAGTACAAAAAAACTTGTTATA [XGTACX_site8518] | 6.84 |
| TGTATTAATAAAAATACACACATCATATTATATAAA [CACACA_site3534] | 6.84 |
| AATCCTTACAGACACACACACACGAATAAATAAAAA [CACACA_site480] | 7.3 |
| TATGTATTATCAAAAAGTACTAAAAAAAAATAATAA [XGTACX_site4703] | 6.99 |
| TTATAATTTTTGAGCACACACAAGCATATATATATA [CACACA_site1798] | 9.3 |
| ATAAATGTTATGCATACACACTTTATACCTATTTAA [CACACA_site5967] | 7.24 |
| AAAAAAAAAAAACACACACACACATACAAAATATAT [CACACA_site1448] | 7.14 |
| ACATATGAATATTTTTGTACGTATATTGTTATTCTT [XGTACX_site4720] | 7.18 |
| TTTTTTTTTATTATCATGCACACATTTTTTTTTTTT [CACACA_site2254] | 7.56 |

| Sequence | gcPBM binding intensity (ln) |
| --- | --- |
| AATTATACGAAATAAAACTTAATAGACAAAAAATTA [CACACA_negctrl_site1384] | 6.78 |
| GTAATTTAAATAACAAGTACTAATGTGGATAAGCAG [XGTACX_site1163] | 7.58 |
| GTATATTTAAATAAAAGTACGTAAAGATATATTTAA [XGTACX_site8087] | 7.14 |
| ATAATATGCAATATTACACACAATTCATCATTTTTT [CACACA_site7477] | 6.83 |
| AACAAAATAAAACACACACACAAATGTACATATATA [CACACA_site2424] | 7.1 |
| TAGAAGCATCATTTTACACACATGCAAATGTAAACT [CACACA_site6973] | 6.66 |
| ATTTTGTATTGACGCTGTACAAACATTAATATAATA [XGTACX_site2496] | 7.07 |
| TTTTGCGTAGCAACGAGGTTTTTAAAAATGTAACCA [GTGCAC_negctrl_site691] | 6.79 |
| TATGCAAATTAATAATGTACGAAATATTTATAATTT [XGTACX_site2324] | 6.86 |
| AAAAGGAACGGACACACACACATATATATATATATA [CACACA_site5894] | 9.31 |
| AATAAATTAGAAGGATGTACTTTGTTTAATATAGAG [XGTACX_site1943] | 7.07 |
| TAATATAATCTGAGTGCACACAAATAAATAAACATA [CACACA_site8032] | 10.3 |
| AGGTTATATATGAACAAAAATAAAATATTCATAGGC [TGCATGCA_negctrl_site46] | 6.96 |
| ATATGTAAAATGAAGATACATACATACATACATACA [CACACA_negctrl_site715] | 7.87 |
| ATGTTATAAAATATATGTACATATTTATATAAAATA [XGTACX_site5766] | 7.27 |
| ATATTATATATATGATGTACTAAATATATTATTATG [XGTACX_site1703] | 7.08 |
| TATTTTATATTATCATGTACAAAAAAAAAGAAAAGA [XGTACX_site5379] | 7.13 |
| ATAAATAATTAGAATTGTACAAAAATTATATATATG [XGTACX_site5107] | 6.79 |
| TATATAAAAAGTAATTGTACATATATATATATATAT [XGTACX_site7953] | 9.28 |
| ATATATTTATATAAATGTACACGTGAATATATAATA [XGTACX_site1166] | 7.34 |
| TCTATTAATGAATATACACACATTATATATATATAT [CACACA_site5410] | 9.13 |
| TTTATATTCTTTTTTTAACACACAAAAAAAATAAAA [CACACA_site8574] | 7.2 |
